Test results reported in PMC4336329 (PLoS ONE, 2015).
The whole screen tested about 310,000 compounds, of which about 2,200 (0.71%) showed an effect of 50% or more. The effect is printed as a negative number. The list shows a part of the results.

What follows are molecules tested against human ether-à-go-go-related gene (hERG) potassium channel (human, UniProt Q12809) (assay: primary screen, population patch clamp on CHO cells stably expressing hERG).
Sequence of human ether-à-go-go-related gene (hERG) potassium channel (Q12809 whole entry, looked up): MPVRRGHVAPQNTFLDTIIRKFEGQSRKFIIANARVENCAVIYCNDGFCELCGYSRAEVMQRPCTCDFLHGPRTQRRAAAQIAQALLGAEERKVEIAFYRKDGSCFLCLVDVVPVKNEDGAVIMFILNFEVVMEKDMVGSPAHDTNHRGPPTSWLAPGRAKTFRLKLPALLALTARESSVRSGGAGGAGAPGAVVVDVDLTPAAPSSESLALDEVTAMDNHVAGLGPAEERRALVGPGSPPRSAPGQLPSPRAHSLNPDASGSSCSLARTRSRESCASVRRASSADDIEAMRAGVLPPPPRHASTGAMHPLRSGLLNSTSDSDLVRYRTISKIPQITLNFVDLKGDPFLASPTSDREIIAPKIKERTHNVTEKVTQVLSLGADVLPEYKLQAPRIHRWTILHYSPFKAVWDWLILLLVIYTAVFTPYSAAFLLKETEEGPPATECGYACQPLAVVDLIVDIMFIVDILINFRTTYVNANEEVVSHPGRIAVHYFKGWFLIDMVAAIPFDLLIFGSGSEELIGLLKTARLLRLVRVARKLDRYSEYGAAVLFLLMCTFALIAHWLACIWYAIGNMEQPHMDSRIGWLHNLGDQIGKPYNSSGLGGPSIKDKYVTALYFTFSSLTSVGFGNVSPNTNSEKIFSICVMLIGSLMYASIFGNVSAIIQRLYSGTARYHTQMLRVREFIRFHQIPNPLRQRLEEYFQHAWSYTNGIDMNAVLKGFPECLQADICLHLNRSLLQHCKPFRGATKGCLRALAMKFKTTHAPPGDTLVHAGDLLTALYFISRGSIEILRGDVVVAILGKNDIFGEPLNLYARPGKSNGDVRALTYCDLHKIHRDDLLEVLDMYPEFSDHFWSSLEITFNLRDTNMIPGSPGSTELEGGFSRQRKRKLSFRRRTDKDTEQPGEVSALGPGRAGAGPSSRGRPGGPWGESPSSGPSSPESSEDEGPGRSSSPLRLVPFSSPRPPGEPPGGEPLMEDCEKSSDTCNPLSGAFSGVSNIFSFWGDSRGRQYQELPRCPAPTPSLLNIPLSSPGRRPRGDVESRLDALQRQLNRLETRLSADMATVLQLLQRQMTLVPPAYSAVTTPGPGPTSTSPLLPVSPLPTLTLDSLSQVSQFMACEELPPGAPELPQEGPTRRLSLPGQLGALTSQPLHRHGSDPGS

SMILES	hERG current change (%, negative = inhibition) at 1uM [%]
Cc1ccc(/C=C/C(=O)NCCCN2CCN(CCCNC(=O)/C=C/c3ccc(C)cc3)CC2)cc1	7.32
Nc1nonc1-n1nnc(C(=O)N/N=C/c2ccc(OCc3ccccc3F)cc2)c1CN1CCCCC1	9.52
Cn1cnnc1SCc1ccc(C(=O)n2ncc(C#N)c2N)cc1	14.3
Cc1cccc(OCC(=O)NCC(=O)N/N=C/c2cccnc2)c1	9.02
CC(=O)Nc1cc(S(=O)(=O)Nc2ccc(C)cc2)c(C)cc1C	6.6
C/C(=N/OC(=O)CC(C)C)c1cc(-c2ccc(Cl)cc2)no1	10.9
N#Cc1ccc(C(=O)CSc2nnc(-c3ccc(C(F)(F)F)cn3)s2)cc1	12.8
CC1CN(CCC(=O)Nc2ccccc2F)CC(C)O1 (stereo not drawn)	11.7
Cc1cc(C(=O)N2CCCC(N3CCN(Cc4ccc5c(c4)OCO5)CC3)C2)n[nH]1 (stereo not drawn)	10.4
COc1ccccc1C(=O)NCCC(=O)NCC1CCCO1 (stereo not drawn)	-7.27
Cc1cccc(NC(=O)CN2CCc3cc4c(cc3C2C)OCCCO4)c1 (stereo not drawn)	11.2
CC(=O)c1ccc(OCc2ccc(Oc3c(Cl)cccc3[N+](=O)[O-])cc2)cc1	13.6
Cn1c(=O)c2c(nc(SCC(=O)Nc3ccccc3N3CCCCC3)n2C)n(C)c1=O	-5.72
COc1ccc(-n2nc([N+](=O)[O-])c(=NC3CCN(Cc4ccccc4)CC3)n2O)cc1	-6.46
O=C(OCC(=O)N1CCCc2ccccc21)c1ccc(Br)o1	9.32
CC(CCc1ccccc1)NC(=O)COC(=O)c1ccc(S(C)(=O)=O)c([N+](=O)[O-])c1 (stereo not drawn)	-10.4
CCOC(=O)C1CCN(C(=O)C2CCN(S(=O)(=O)c3c(C)noc3C)CC2)CC1	3.07
CN(C)CCCn1c(NC(=O)C2CCCCC2)nc2ccccc21	0.162
CCOCCCNC(=O)Cn1ncc2c(=O)oc3ccccc3c21	0.347
CCOC(=O)[C@@H]1[C@H]2COc3ccc(Br)cc3[C@H]2N2C(=O)N(c3cccc(F)c3)C(=O)[C@]12C	2.36
CN(NS(C)(=O)=O)c1c(C#N)c(C(F)(F)F)nn1C	3.87
O=C(/C=C/c1ccco1)NCC1(c2ccccc2)CCCC1	9.98
CCOc1ccc(S(=O)(=O)Nc2cccc(Cl)c2)cc1	8.83

SMILES	hERG current change (%, negative = inhibition) at 1uM [%]
Cc1ccccc1C(=O)NC1CCN(Cc2nnnn2CCc2ccccc2)CC1	6.17
Cc1cccc(C(=O)OCN2C(=O)c3ccccc3C2=O)c1[N+](=O)[O-]	15.4
O=C(CSC1c2ccccc2C(=O)N1c1ccccc1)N1CCOCC1 (stereo not drawn)	-2.34
COc1ccc(C(=O)Nc2c(F)c(F)c(F)c(F)c2F)c(OC)c1	9.31
O=S(=O)(NCCN1CCOCC1)c1ccc2c(c1)OCCO2	14
Br.O=C(CN1C2=NCCN2c2ccccc21)C12CC3CC(CC(C3)C1)C2	-47.7
COc1ccc(CC(=O)Nc2cc(C)ccn2)cc1	9.2
Cn1c(CNC(=O)CCNC(=O)c2ccccc2F)cc(=O)n(C)c1=O	12.3
CC(=O)Nc1nc2c(ccc3ccccc32)s1	15.1
Cc1ccc(CN2CCN(C(=O)CCc3ccccc3)CC2)cc1	5.49
CC1CCN(S(=O)(=O)c2ccc3[nH]c(=O)cc(C(=O)O)c3c2)CC1	8.95
O=C(Nc1cnccn1)c1cccs1	-3.02
CCc1nnc(SCC(=O)Nc2ccc(C(C)=O)cc2)nc1CC	8.53
COC(=O)CCC(=O)Nc1ccc(OC)cc1	11.5
O=C(O)Cn1c(=O)c2c3c(sc2n(Cc2ccccc2F)c1=O)CCCC3	10.5
CSc1nnc(-c2sc3cc(C(F)(F)F)cnc3c2-c2cccnc2)n1C	5.39
Cc1ccc(COc2ccc(/C=N/NC(=O)c3ccc(CN4CCOCC4)cc3)cc2)cc1	10.2
COc1ccccc1NC(=O)N1CCN(c2cc(-c3ccccc3)nc3ncnn23)CC1	-13.9
COc1ccc2cc(CCNC(=O)C3CC3)c(=O)[nH]c2c1	12
CCOC(=O)CNC(=O)CSc1nnc(Cn2c(=O)sc3ccccc32)n1-c1ccccc1C	3.46
CCOC(=O)COc1ccc(CCNC(C)=O)cc1	17.8
COc1ccc(/C=C/C(=O)c2ccc(O)cc2)cc1COc1ccc(F)cc1	6.99
COc1ccccc1C(=O)NC(C(=O)NCCc1nc2ccccc2[nH]1)=C(C)C	13.8

SMILES	hERG current change (%, negative = inhibition) at 1uM [%]
O=C1CCC(C(=O)NC2(C(=O)NC3CCCCC3)CCCCC2)N1 (stereo not drawn)	14.1
S=c1[nH]nc(CCSCc2ccccc2)n1-c1ccccc1	19.2
CCC(C)(C)NC(=O)CN(CCc1cccc(C)c1)C(=O)c1csnn1	6.27
CCCCN(CCNP(=O)(OCC)OCC)CP(=O)(OCC)OCC	-3.14
COC(=O)C(CCSC)NC(=O)CNC(=O)C1CCCCC1 (stereo not drawn)	10.7
CN(C(=O)c1ccccc1C(=O)OCC(=O)c1ccc(Br)cc1)c1ccccc1	14.4
Cc1cccc(CSc2ncccc2C(=O)O)c1	5.61
CCOC(CCc1c(C)nc(NC(C)=O)[nH]c1=O)OCC	14.1
CC(=O)N1CCC(=O)N(C(C)C)c2ccccc21	5.72
O=C(Nc1nc(N2C(=O)c3ccccc3C2=O)n(-c2ccccc2)n1)c1ccccc1	2.24
COC(c1ccccc1)c1nnc(CCC(=O)N(C)C(C2CC2)C2CC2)o1 (stereo not drawn)	0.91
O=C1CN(O)C(c2ccccc2)=c2cc(Cl)ccc2=N1	3.47
Cc1ccc(NC(=S)N(CCN(C)C)C(C)c2cccnc2)cc1 (stereo not drawn)	-3.9
Cc1ccc(NC(=O)NCc2cccnc2)cc1	-15
O=C(C1CCN(S(=O)(=O)N2CCC3(CC2)OCCO3)CC1)N1CCc2ccccc2C1	11.6
CCCCN=C[C@]12CCC(O)CC1(O)CCC1[C@@H]2CC[C@]2(C)[C@H](C3C=CC(=O)O3)CCC12O (stereo partly drawn)	19.8
COC(=O)c1ccccc1Oc1ccc(NC(=O)c2ccco2)cc1	2.67
CCNS(=O)(=O)c1ccc(NC(=O)c2ccc(Cn3cc(Br)cn3)o2)cc1	14.6
COc1ccc2oc(C(=O)N(C)Cc3ccc4c(c3)OCCO4)c(C)c2c1	9.19
COc1ccc(CCNC(=O)c2ccc(C)s2)cc1OC	12.3
Cc1cc2ccccc2c(=O)n1CC(=O)NCC(=O)N(C)Cc1ccccc1	17.1
COc1cccc(C2CC(=O)NC3=C2C(=O)CCC3)c1 (stereo not drawn)	14.1
COc1cccc(OCCOCCNCCO)c1	9.06

SMILES	hERG current change (%, negative = inhibition) at 1uM [%]
COc1ccccc1CNC(=O)c1cc(C)nc2ccccc12	12.2
COc1ccccc1NC(=O)Cn1cnc2c(oc3nc4c(cc32)CCCC4)c1=O	6.48
COc1ccc(C2=NN(C(=O)CSc3nnc(C)n3C)C(c3ccco3)C2)cc1 (stereo not drawn)	16.9
O=C(NNC(=O)c1cccs1)c1ccccc1	5.51
CC(C(=O)Nc1ccccn1)N1C(=O)c2ccccc2S1(=O)=O (stereo not drawn)	6.56
CN(CC(=O)NNC(=O)CCNS(=O)(=O)c1ccccc1)S(=O)(=O)c1ccc(Cl)cc1	-2.66
Cc1sc(NC(=O)c2ccccc2)c(C#N)c1-c1ccccc1	12.6
Cn1c(Cn2nnc(-c3ccccc3)n2)nnc1SCc1ccccc1Cl	5.26
CCC(=NCCc1c[nH]c2ccccc12)c1c(O)n(C)c(=O)n(C)c1=O	14
O=C(COC(=O)CCCCCN=C1NS(=O)(=O)c2ccccc21)Nc1ccc(Cl)c(Cl)c1	12.1
CSc1ccccc1NC(=S)Nc1cccc(C(F)(F)F)c1	12.6
Cc1nc2ccccc2cc1OCc1ccc(F)cc1	11.2
O=C(CCCCCN1C(=O)c2ccccc2C1=O)Nc1ccc2c(c1)OCCO2	4.28
CC1(C)CC(=O)c2cc(C(=O)O)c(=O)n(-c3ccccc3)c2C1	11.8
Cc1ccc(OCCOCCn2cnc3ccccc3c2=O)cc1C	-5.16
OCC1(CCc2ccccc2)CCCN(C/C=C/c2ccccc2)C1 (stereo not drawn)	-53.6
Cc1ccc(-n2ncc3c(=O)[nH]cnc32)c(C)c1	4.6
O=C(CCCCCn1c(=S)[nH]c2cc3c(cc2c1=O)OCO3)N1CCN(Cc2ccccc2)CC1	12.5
Cc1ccc(S(=O)(=O)NNC(=O)c2cnn(-c3ccccc3)c2C(F)(F)F)cc1	8.86
Cc1nnc(NC(=O)CSc2nnc(-c3ccc(S(=O)(=O)N4CCCC4)cc3)n2C)s1	0.762
NC(=O)COC(=O)c1ccc(C(=O)C(=O)c2ccccc2)cc1	12.9
